# From PubChem BioAssay AID686979 (National Center for Advancing Translational Sciences (NCATS), 2013)
# Out of some 420,000 compounds screened, about 50,000 (12%) were called active. The inconclusive results got no clear call from the source; some entries with a clear call stand among them for comparison. Calls follow the shape of the dose curve; as a rule, active = well fitted inhibition curve with a large enough effect; inconclusive = small, poorly fitted or top-dose-only effect; inactive = flat fitted curve, though single readings scatter. Potencies of inconclusive entries are left out as doubtful fits.
# Assay: qHTS for Inhibitors of human tyrosyl-DNA phosphodiesterase 1 (TDP1): qHTS in cells in presence of CPT; also: nearly all actives have a fitted effect of over 55% in size
# Conditions: chicken DT40 Tdp1-/-;hTDP1 cells + 20 nM CPT, ATP luminescence, 48 h; series mostly up to 46.2 µM
# Summary of the method: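 Cell growth measured by CellTiter-Glo luminescence after a minimum 48 h, 37 C compound exposure with 20 nM CPT in Tdp1-knockout DT40 cells stably expressing hTDP1, seeded 400/well; qHTS titration format.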
# Potency is read from the fitted curve at half-maximal effect; tags tell the direction and shape of the fitted curve.
row,SMILES,Potency
1,OCCNc1nc(-c2ccccc2)nc2ccccc12,inactive
2,COC(=O)c1ccc(NC(=O)Nc2cccc(F)c2)cc1,"inconclusive [inhibitor, single point]"
3,COc1cccc(NC(=O)C2(C)CCN2C(=O)CC2CCCC2)c1 (stereo not drawn),"inconclusive [inhibitor, single point]"
4,CCOC(=O)c1ccc(NC(=O)CC2C(=O)N(c3cccc(C)c3)C(=O)N2CCOC)cc1 (stereo not drawn),"inconclusive [inhibitor, single point]"
5,COc1ccccc1CN1C[C@@H]2C[C@@H](c3[nH]c4c(C)cccc4c3C)N3CCC[C@@]23C1=O,inactive
6,CN1CCC(N(C)C(=O)c2cc(-c3ccccc3Cl)nc3ccccc23)CC1,"inconclusive [inhibitor, single point]"
7,CC(C)CNC(=S)NC1CC2CCCC(C1)N2Cc1cccs1 (stereo not drawn),"inconclusive [inhibitor, partial curve, poor fit]"
8,CCCCN1CC(N2CCN(Cc3ccccc3)CC2)CS1(=O)=O (stereo not drawn),"inconclusive [inhibitor, single point]"
9,CN(C)CCCN(C(=O)c1ccc(S(=O)(=O)N(C)C2CCCCC2)cc1)c1nc2ccc(Br)cc2s1,"inconclusive [inhibitor, single point]"
10,COc1ccc(C(=O)C2CCCN(Cc3cccc4c3OCO4)C2)cc1OC (stereo not drawn),"inconclusive [inhibitor, single point]"
11,Cc1cc2c(cc1S(=O)(=O)N1CCN(c3cccc(C)c3C)CC1)OCCN2C,"inconclusive [inhibitor, single point]"
12,COc1cccc(CNc2ncnc3cc(OC)c(OC)cc23)c1,"inconclusive [inhibitor, single point]"
13,O=c1[nH]c(CN2CCN(S(=O)(=O)c3ccc4c(c3)OCCO4)CC2)nc2sc3c(c12)CCCC3,"inconclusive [inhibitor, single point]"
14,Cc1ccccc1Nc1c(C)c(C)nc2ncnn12,active: 16.4 µM
15,COc1ccc(N2CCN(CC(O)COc3cc(C)cc(C)c3)CC2)cc1 (stereo not drawn),"inconclusive [inhibitor, single point]"
16,Cc1cc(OCC(=O)NCCc2c[nH]c3ccccc23)c2c(C)cc(=O)oc2c1,"inconclusive [inhibitor, single point]"
17,C=CCNC(=O)/C(=C\c1ccc2c(c1)OCO2)NC(=O)c1ccc(Br)cc1,inactive
18,Nc1ccc(-c2nc3c(Cl)cc(N)cc3[nH]2)cc1,active: 5.8 µM
19,COCCn1c(=O)c(-c2cc(F)cc(F)c2)nc2cnc(N3CCNCC3)nc21,"inconclusive [inhibitor, single point]"
20,CCOC(=O)c1c(CNc2ccncc2)n(C)c2cc(Br)c(O)cc12,"inconclusive [inhibitor, single point]"
21,COc1cc(NC(=O)CSc2nc3ccccc3c(=O)n2C)ccc1NC(=O)c1ccco1,inactive
22,COc1ccc(S(=O)(=O)NC2CC(=O)N(c3ccc(C)c(C)c3)C2)cc1C (stereo not drawn),"inconclusive [inhibitor, single point]"
23,COCCN=c1scc(-c2cc(OC)c(OC)c(OC)c2)n1/N=C/c1c(C)[nH]c2ccccc12,"inconclusive [inhibitor, single point]"

row,SMILES,Potency
1,CCN(CC)S(=O)(=O)c1ccc(OC)c(NC(=O)c2ccc([N+](=O)[O-])cc2)c1,"inconclusive [inhibitor, single point]"
2,C(=C\c1ccccc1)/CN1CCN(C(c2ccnc3ccccc23)c2nnnn2C2CCCCC2)CC1 (stereo not drawn),active: 23.1 µM
3,CCOC(=O)c1c(CN2CCN(c3ccccc3)CC2)oc2cc(Br)c(O)cc12,"inconclusive [inhibitor, single point]"
4,O=C(NCc1ccco1)C1CC(c2ccc(Cl)c(Cl)c2)=NO1 (stereo not drawn),active: 13 µM
5,O=C(CNC(=O)C12CC3CC(CC(C3)C1)C2)NC1=NCCS1,"inconclusive [inhibitor, single point]"
6,COC(=O)/C=C/c1cc(F)ccc1S(=O)(=O)Nc1ccccc1,"inconclusive [inhibitor, single point]"
7,COc1ccc(NC(=O)C2(C)CCN2Cc2ccc(SC)cc2)cc1OC (stereo not drawn),active: 16.4 µM
8,CCCSc1nc(-c2ccccc2)cc(C(F)(F)F)c1C#N,"inconclusive [inhibitor, single point]"
9,CCOc1cc(CNC(=O)NC2COc3ccccc3C2)cc(OCC)c1OCC (stereo not drawn),"inconclusive [inhibitor, partial curve]"
10,COc1ccc(OC)c(-c2csc(-c3c(N)c(C(=O)c4ccc(Cl)cc4)n4ccccc34)n2)c1,inactive
11,Cc1cc(C)c(C(=O)/C=C/c2cccc3ccccc23)c(=O)[nH]1,active: 16.4 µM
12,COc1ccc2c(c1)CCC1C2=NN(/C(C)=C\C(C)=O)C1c1ccc(F)cc1 (stereo not drawn),active: 18.4 µM
13,O=C(COc1ccccc1[N+](=O)[O-])N1CCCc2ccccc21,"inconclusive [inhibitor, single point]"
14,CC(C)CCNC(=O)c1onc(CSc2ccncc2)c1C(=O)NCCC(C)C,"inconclusive [inhibitor, single point]"
15,COc1ccccc1CNC(=O)c1cc2ccccc2oc1=O,inactive
16,CCOc1ccc(NC(=O)c2cc3ccccc3cc2O)cc1,"inconclusive [inhibitor, partial curve, poor fit]"
17,Cc1cccc(OCC(=O)N2CCN(c3nnc(-c4ccccc4)c4ccccc34)CC2)c1,"inconclusive [inhibitor, single point]"
18,COc1ccc(-c2sc3ccc(OC)cc3c2-c2ccc(OC)nc2)cc1,"inconclusive [inhibitor, single point]"
19,COc1cccc(CNC(=O)c2cc3c(=O)n(Cc4cccnc4)ccc3nc2C)c1,"inconclusive [inhibitor, single point]"
20,CC(C)COc1ccc(C(=O)Nc2nnc(S(=O)(=O)N(C)Cc3ccco3)s2)cc1,"inconclusive [inhibitor, single point]"
21,O=C(Nc1cccnc1)c1cccc(-c2cc3ccccc3oc2=O)c1,inactive
22,CCC(C)(c1nnnn1-c1c(C)cccc1C)N(N=O)c1cccc(C(F)(F)F)c1 (stereo not drawn),active: 25.9 µM
23,Fc1ccccc1-c1ccc(-c2nc3ccc(Cl)cn3c2Nc2ccc(Cl)cc2)o1,active: 4.47 µM

row,SMILES,Potency
1,CCOc1ccc(S(=O)(=O)N2CCCC(C(=O)NCc3ccccn3)C2)cc1Cl (stereo not drawn),"inconclusive [inhibitor, single point]"
2,CCc1ccccc1Nc1ncnc2c1cnn2-c1ccc(C)cc1C,"inconclusive [inhibitor, single point]"
3,CCOc1ccc(NC(=O)C(=O)N/N=C/c2cccnc2)cc1,inactive
4,Fc1ccc(-c2[nH]ncc2CN(CC2CCC2)CC2CCCO2)c(F)c1 (stereo not drawn),"inconclusive [inhibitor, single point]"
5,O=C(c1csnn1)N1CCC2(CC1)CN(c1cccc(-c3ccccc3)c1)C2,active: 23.1 µM
6,CC(C)CC(=O)NC(=S)Nc1ccccc1C(=O)Nc1ccccc1,inactive
7,CN1OC[C@@H]2CN(Cc3ccccc3)[C@H](c3cccc(Oc4ccccc4)c3)C[C@@H]21,active: 25.9 µM
8,O=C(Nc1ccccn1)C1CCN(C(=O)Nc2ccccc2)CC1,inactive
9,Fc1ccc2[nH]c3c(N4CCN(c5ccccc5)CC4)ncnc3c2c1,active: 5.17 µM
10,CCc1cccc(NC(c2ccccc2)c2nnc(-c3ccccc3F)o2)c1 (stereo not drawn),"inconclusive [inhibitor, single point]"
11,CCOC(=O)[C@H]1[C@H]2COc3ccc(Cl)cc3[C@@H]2N2C(=O)CN(Cc3ccccc3)C(=O)[C@@]12C,"inconclusive [inhibitor, single point]"
12,O=C(NCc1ccco1)c1cc2cc3ccc(Cl)cc3nc2o1,"inconclusive [inhibitor, single point]"
13,COc1ccc(Oc2ncc3nc(CCc4ccccc4)c(=O)n(C4CC4)c3n2)cc1,"inconclusive [inhibitor, single point]"
14,COc1ccc(C(=O)OCC(=O)c2ccc(C)c(S(=O)(=O)N3CCOCC3)c2)cc1OC,active: 18.4 µM
15,COc1ccccc1N(CC(=O)N/N=C/c1c(O)ccc2ccccc12)S(C)(=O)=O,active: 5.17 µM
16,O=C(NC1CC1)C1CCN(C2CCN(C(=O)Cc3ccc4c(c3)OCO4)CC2)CC1,inactive
17,COc1ccccc1N1CCN(C(=O)CSc2ncnc3c2cnn3-c2ccc(C)c(C)c2)CC1,"inconclusive [inhibitor, single point]"
18,O=C(COC(=O)c1cccc(S(=O)(=O)N2CCc3ccccc3C2)c1)NCc1ccco1,inactive
19,Cc1csc(SCC(=O)c2c(N)n(CC(C)C)c(=O)n(C)c2=O)n1,active: 16.4 µM
20,COc1ccc2[nH]c(=O)c(CN(C(=O)c3ccccn3)C3CCCCC3)cc2c1,"inconclusive [inhibitor, single point]"
21,COc1ccc(N2CCN(C(=O)c3c(-c4ccccc4)noc3C)CC2)cc1,"inconclusive [inhibitor, single point]"
22,CO/N=C(/CS(=O)(=O)c1ccc(Br)cc1)c1ccc(OC)cc1,"inconclusive [inhibitor, single point]"
